Some of the results follow.
B1: PhoQ; a variant is named by its letters at X, in order, P23837 (parent)
chain: MKKLLRLFFPLSLRVRFLLATAAVVLVLSLAYGMVALIGYSVSFDKTTFRLLRGESNLFYTLAKWENNKLHVELPENIDKQSPTMTLIYDENGQLLWAQRDVPWLMKMIQPDWLKSNGFHEIEADVNDTSLLLSGDHSIQQQLQEVREDDDDAEMTHSVAVNVYPATSRMPKLTIVVVDTIPVELKSSYMVWSWFIYVLSANLLLVIPLLWVAAWWSLRPIEALAKEVRELEEHNRELLNPATTRELTSLVRNLNRLLKSERERYDKYRTTLTDLTHSLKTPLXXLQXXLRSLRSEKMSVSDAEPVMLEQISRISQQIGYYLHRASMRGGTLLSRELHPVAPLLDNLTSALNKVYQRKGVNISLDISPEISFVGEQNDFVEVMGNVLDNACKYCLEFVEISARQTDEHLYIVVEDDGPGIPLSKREVIFDRGQRVDTLRPGQGVGLAVAREITEQYEGKIVAGESMLGGARMEVIFGRQHSAPKDE

Variants of: B1
Experiment: enrichment ratio after two sorts for PhoP signalling (ratio (wild type AVST 3.29)); higher = more functional
Details: with PhoP (E. coli)

Row | Variant | enrichment ratio
1 | HMYV | ≤ 0.25
2 | QEII | ≤ 0.25
3 | LILF | ≤ 0.25
4 | WVCP | ≤ 0.25
5 | QICD | ≤ 0.25
6 | MERA | ≤ 0.25
7 | YWGV | ≤ 0.25
8 | ADKQ | ≤ 0.25
9 | DWQP | ≤ 0.25
10 | VFPH | ≤ 0.25
11 | LTEN | ≤ 0.25
12 | EDLF | ≤ 0.25
13 | VVRP | ≤ 0.25
14 | RGPQ | ≤ 0.25
15 | EPCY | ≤ 0.25
16 | WFQK | ≤ 0.25
17 | NSLR | ≤ 0.25
18 | GNKT | ≤ 0.25
19 | YSEL | ≤ 0.25
20 | EISD | ≤ 0.25
21 | HMLK | ≤ 0.25
22 | GKET | ≤ 0.25
23 | HYNW | ≤ 0.25
24 | DQVK | ≤ 0.25
25 | LYCP | ≤ 0.25

Row | Variant | enrichment ratio
26 | LCKS | ≤ 0.25
27 | HFAR | ≤ 0.25
28 | FRNS | 0.333
29 | GPQG | ≤ 0.25
30 | FSKL | ≤ 0.25
31 | VHLY | ≤ 0.25
32 | TNHW | ≤ 0.25
33 | YWKD | ≤ 0.25
34 | MSTL | 10.9
35 | KTFP | ≤ 0.25
36 | MPTH | ≤ 0.25
37 | EIFH | ≤ 0.25
38 | RQYA | ≤ 0.25
39 | PVCA | ≤ 0.25
40 | HKFD | ≤ 0.25
41 | AVTW | 43.5
42 | TCYD | ≤ 0.25
43 | NDIQ | ≤ 0.25
44 | VCCK | ≤ 0.25
45 | IPTY | ≤ 0.25
46 | AEMT | 5.41
47 | FIRG | ≤ 0.25
48 | HTTF | ≤ 0.25
49 | LTAT | ≤ 0.25
50 | IMGP | ≤ 0.25

Row | Variant | enrichment ratio
51 | TSEP | ≤ 0.25
52 | IICD | ≤ 0.25
53 | VMDV | ≤ 0.25
54 | FKKM | ≤ 0.25
55 | ACMC | 5.68
56 | AVMC | ≤ 0.25
57 | FWET | ≤ 0.25
58 | HAIT | ≤ 0.25
59 | EKHC | ≤ 0.25
60 | FKHF | ≤ 0.25
61 | DNSW | ≤ 0.25
62 | WRYY | ≤ 0.25
63 | AMYT | 0.317
64 | TIKP | ≤ 0.25
65 | SSSC | 9.78
66 | RKQD | ≤ 0.25
67 | MWTV | ≤ 0.25
68 | RRTI | ≤ 0.25
69 | LDYI | ≤ 0.25
70 | FQNK | ≤ 0.25
71 | PMNE | ≤ 0.25
72 | YGQG | ≤ 0.25
73 | PWDF | ≤ 0.25
74 | GDLF | ≤ 0.25
75 | KQLI | ≤ 0.25

Row | Variant | enrichment ratio
76 | KCAI | ≤ 0.25
77 | LQIL | ≤ 0.25
78 | PAHW | ≤ 0.25
79 | IPWN | ≤ 0.25
80 | DLVY | ≤ 0.25
81 | WHAF | ≤ 0.25
82 | FCMH | ≤ 0.25
83 | QESY | ≤ 0.25
84 | PNWN | ≤ 0.25
85 | KYCS | ≤ 0.25
86 | GRRD | ≤ 0.25
87 | NCYW | ≤ 0.25
88 | SDYI | ≤ 0.25
89 | VNWG | ≤ 0.25
90 | GATY | ≤ 0.25
91 | KQAD | ≤ 0.25
92 | RACK | ≤ 0.25
93 | MHIL | ≤ 0.25
94 | IRGH | ≤ 0.25
95 | SSYN | ≤ 0.25
96 | FYAL | ≤ 0.25
97 | RWFH | ≤ 0.25
98 | IIAM | ≤ 0.25
99 | DDYC | ≤ 0.25
100 | NRNT | ≤ 0.25

Row | Variant | enrichment ratio
101 | LWQY | ≤ 0.25
102 | NPGV | ≤ 0.25
103 | TTRW | ≤ 0.25
104 | KFLE | ≤ 0.25
105 | RELD | ≤ 0.25
106 | SKWI | ≤ 0.25
107 | IVVY | ≤ 0.25
108 | GNMT | ≤ 0.25
109 | GFEV | ≤ 0.25
110 | CLSF | 10.1
111 | DLHG | ≤ 0.25
112 | TGHG | 4.69
113 | TAWI | 10.7
114 | YCPN | ≤ 0.25
115 | FTII | ≤ 0.25
116 | GATV | 0.428
117 | NCWD | ≤ 0.25
118 | TWGR | ≤ 0.25
119 | TNRC | ≤ 0.25
120 | EAYD | ≤ 0.25
121 | IYWK | ≤ 0.25
122 | GKPW | ≤ 0.25
123 | SYCD | ≤ 0.25
124 | DHWH | ≤ 0.25
125 | TKQC | 12.8

Row | Variant | enrichment ratio
126 | RKEE | ≤ 0.25
127 | TYMC | ≤ 0.25
128 | DDWL | ≤ 0.25
129 | DMDK | ≤ 0.25
130 | GDMT | ≤ 0.25
131 | KTTW | ≤ 0.25
132 | KVCI | ≤ 0.25
133 | QMIH | 1.16
134 | DQAW | ≤ 0.25
135 | TMIA | ≤ 0.25
136 | WKFI | ≤ 0.25
137 | QDYM | ≤ 0.25
138 | YWMK | ≤ 0.25
139 | MSSS | 0.538
140 | VAAD | ≤ 0.25
141 | IYVT | ≤ 0.25
142 | IQGD | ≤ 0.25
143 | KEVG | ≤ 0.25
144 | MGHP | ≤ 0.25
145 | MYAS | ≤ 0.25
146 | YYHK | ≤ 0.25
147 | YCLL | 10.2
148 | AQLS | 10.2
149 | TIDT | ≤ 0.25
150 | MYDE | ≤ 0.25

Row | Variant | enrichment ratio
151 | RDIQ | ≤ 0.25
152 | SQWW | ≤ 0.25
153 | NHGL | ≤ 0.25
154 | PHKF | ≤ 0.25
155 | PHVV | ≤ 0.25
156 | TTSG | 19.5
157 | GMWA | ≤ 0.25
158 | SPKF | ≤ 0.25
159 | DANG | ≤ 0.25
160 | WCEF | ≤ 0.25
161 | SIEM | ≤ 0.25
162 | SADL | ≤ 0.25
163 | YQPT | ≤ 0.25
164 | GRDR | ≤ 0.25
165 | SKAW | ≤ 0.25
166 | RYWL | ≤ 0.25
167 | WEVW | ≤ 0.25
168 | RPIN | ≤ 0.25
169 | WLII | ≤ 0.25
170 | DTMP | ≤ 0.25
171 | NINK | ≤ 0.25
172 | IPEE | ≤ 0.25
173 | GRMN | ≤ 0.25
174 | MTLN | 2.09
175 | DYRF | ≤ 0.25

Row | Variant | enrichment ratio
176 | KGYD | ≤ 0.25
177 | KKLN | ≤ 0.25
178 | NYPI | ≤ 0.25
179 | WETV | ≤ 0.25
180 | IHGC | ≤ 0.25
181 | WTAS | ≤ 0.25
182 | KIGC | ≤ 0.25
183 | EYMI | ≤ 0.25
184 | FMNH | ≤ 0.25
185 | GIYE | ≤ 0.25
186 | TCNH | 10.3
187 | AHVV | ≤ 0.25
188 | PIMF | ≤ 0.25
189 | EYWD | ≤ 0.25
190 | ACDW | ≤ 0.25
191 | RIDG | ≤ 0.25
192 | LVEA | ≤ 0.25
193 | YQNR | ≤ 0.25
194 | YKYA | ≤ 0.25
195 | HALN | 0.451

Source: a collection of fitness landscapes (doi:10.1126/science.1257360)
